Laboratory results as given in patent US20150183847A1.

B1: IN-64 (protein)
chain: RPSGRKSSKMQAFRIWDVNQKTFYLRNNQLVAGYLQGPNVNLEEKIDVVPIEPHALFLGIHGGKMSLSSVKSGDETRLQLEAVNITDLSENRKQDKRFAFIRSDSGPTTSFESAASPGWFLSTAMEADQPVSLTNMPDEGVMVTKFYFQEDEGGGGSGGGGS[in this place about 40 residues]GSGSSSAAAPQT[in this place about 20 residues]
B2: IN-21 (protein)
chain: FVNQHLCGSHLVEALYLVCGERGFFGSGSSSAAAPQT[in this place about 20 residues]GGGGSGGGGSRPSGRKSSKMQAFRIWDVNQKTFYLRNNQLVAGYLQGPNVNLEEKIDVVPIEPHALFLGIHGGKMSLSSVKSGDETRLQLEAVNITDLSENRKQDKRFAFIRSDSGPTTSFESAASPGWFLSTAMEADQPVSLTNMPDEGVMVTKFYFQEDE
B3: IN-15 (protein)
chain: FVNQHLCGSHLVEALYLVCGERGFFGSGSSSAAAPQT[in this place about 20 residues]RPSGRKSSKMQAFRIWDVNQKTFYLRNNQLVAGYLQGPNVNLEEKIDVVPIEPHALFLGIHGGKMSLSSVKSGDETRLQLEAVNITDLSENRKQDKRFAFIRSDSGPTTSFESAASPGWFLSTAMEADQPVSLTNMPDEGVMVTKFYFQEDE
B4: IN-9 (protein)
chain: [in this place about 40 residues]GSGSSSAAAPQT[in this place about 20 residues]GGGGSGGGGSRPSGRKSSKMQAFRIWDVNQKTFYLRNNQLVAGYLQGPNVNLEEKIDVVPIEPHALFLGIHGGKMSLSSVKSGDETRLQLEAVNITDLSENRKQDKRFAFIRSDSGPTTSFESAASPGWFLSTAMEADQPVSLTNMPDEGVMVTKFYFQEDE
B5: IN-6 (protein)
chain: [in this place about 40 residues]GSGSSSAAAPQT[in this place about 20 residues]GGGGSRPSGRKSSKMQAFRIWDVNQKTFYLRNNQLVAGYLQGPNVNLEEKIDVVPIEPHALFLGIHGGKMSLSSVKSGDETRLQLEAVNITDLSENRKQDKRFAFIRSDSGPTTSFESAASPGWFLSTAMEADQPVSLTNMPDEGVMVTKFYFQEDE
B6: IN-12 (protein)
chain: [in this place about 40 residues]GSGSSSAAAPQT[in this place about 20 residues]GGGGSGGGGSGGGGSRPSGRKSSKMQAFRIWDVNQKTFYLRNNQLVAGYLQGPNVNLEEKIDVVPIEPHALFLGIHGGKMSLSSVKSGDETRLQLEAVNITDLSENRKQDKRFAFIRSDSGPTTSFESAASPGWFLSTAMEADQPVSLTNMPDEGVMVTKFYFQEDE
B7: IN-18 (protein)
chain: FVNQHLCGSHLVEALYLVCGERGFFGSGSSSAAAPQT[in this place about 20 residues]GGGGSRPSGRKSSKMQAFRIWDVNQKTFYLRNNQLVAGYLQGPNVNLEEKIDVVPIEPHALFLGIHGGKMSLSSVKSGDETRLQLEAVNITDLSENRKQDKRFAFIRSDSGPTTSFESAASPGWFLSTAMEADQPVSLTNMPDEGVMVTKFYFQEDE
B8: IN-24 (protein)
chain: FVNQHLCGSHLVEALYLVCGERGFFGSGSSSAAAPQT[in this place about 20 residues]GGGGSGGGGSGGGGSRPSGRKSSKMQAFRIWDVNQKTFYLRNNQLVAGYLQGPNVNLEEKIDVVPIEPHALFLGIHGGKMSLSSVKSGDETRLQLEAVNITDLSENRKQDKRFAFIRSDSGPTTSFESAASPGWFLSTAMEADQPVSLTNMPDEGVMVTKFYFQEDE
B9: IN-3 (protein)
chain: [in this place about 40 residues]GSGSSSAAAPQT[in this place about 20 residues]RPSGRKSSKMQAFRIWDVNQKTFYLRNNQLVAGYLQGPNVNLEEKIDVVPIEPHALFLGIHGGKMSLSSVKSGDETRLQLEAVNITDLSENRKQDKRFAFIRSDSGPTTSFESAASPGWFLSTAMEADQPVSLTNMPDEGVMVTKFYFQEDE

molecular target: interleukin-1 receptor (human (CHO-derived cells) or murine (EL4 cells); not stated which gave the tables) (UniProt P14778); experiment: competition with 35S-IL-1Ra on IL-1 receptor cells

Row | % of wild type activity (IC50 ratio) [%] | Binder
1 | 42 | B1
2 | 43 | B2
3 | 32 | B3
4 | 47 | B4
5 | 37 | B5
6 | 48 | B6
7 | 40 | B7
8 | 45 | B8
9 | 35 | B9
